Among the data in the supplement of paper PMC4604168 (melanoma cell lines) are cell count values, retold here.

The list shows a part of the results. Most values come without repeats; read them as rough.

Among the test systems are WM115; WM1716; WM1745; WM3526; WM3619; WM451Lu.
Common to all, as to assay: cell count relative to DMSO control; melanoma cells; higher = more viable cells
Holding throughout (conditions): library dose: low library concentration; 72 h
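Note: cell number obtained by counting DAPI-stained nuclei in high-throughput microscope images with image analysis software, screen run in 1,536-well plates.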

For the compound `C=C(c1ccc(C(=O)O)cc1)c1cc2c(cc1C)C(C)(C)CCC2(C)C` [Bexarotene] + COc1ccc(Cl)c(Nc2nc3ccccc3nc2NS(=O)(=O)c2cccc(NC(=O)C(C)(C)N)c2)c1 [XL147] (first compound 2 µM, partner dose 0.8 µM), the cell count with WM115 turned out to be 103%; in the assay with WM1716 it was 95.1%; in the assay with WM1745, 83.7%; with WM3526, 109%; in the assay with WM3619 it was 84.7%; with WM451Lu, 96.9%.
Take `CN(c1ncccc1CNc1nc(Nc2ccc3c(c2)CC(=O)N3)ncc1C(F)(F)F)S(C)(=O)=O` + COC(=O)c1sccc1S(=O)(=O)Nc1ccc(Nc2ccccc2)cc1OC [GSK0660] (first compound 0.08 µM, partner dose 1 µM): the cell count in the assay with WM115 was 74.8%; in the assay with WM1716, 96.8%; in the assay on WM1745 it was 75.2%; in the assay on WM3526, 99.7%; in the assay with WM3619, 108%; with WM451Lu, 113%.
Take `CCCS(=O)(=O)Nc1ccc(F)c(C(=O)c2c[nH]c3ncc(Cl)cc23)c1F` + COc1ccc(-c2ccc3c(N4CCOCC4)nc(N4C[C@@H](C)O[C@@H](C)C4)nc3n2)cc1CO [KU0063794] (first compound 0.08 µM, partner dose 0.02 µM): the cell count with WM115 was 100%; in the assay on WM1716 it was 127%; in the assay with WM1745 it was 118%; in the assay on WM3526 it was 75.2%; with WM3619 it was 88%; with WM451Lu it was 85.6%.
For `NC1(c2ccc(-c3nc4ccn5c(=O)[nH]nc5c4cc3-c3ccccc3)cc2)CCC1` + C[C@@H](Oc1cc(-c2cnn(C3CCNCC3)c2)cnc1N)c1c(Cl)ccc(F)c1Cl [Crizotinib] (first compound 0.4 µM, partner dose 0.2 µM), the cell count with WM115 is 68.1%; in the assay on WM1716, 89.1%; with WM1745, 84.2%; in the assay with WM3526, 57.4%; in the assay with WM3619 it was 98.5%; in the assay with WM451Lu, 90.2%.
`C=C(c1ccc(C(=O)O)cc1)c1cc2c(cc1C)C(C)(C)CCC2(C)C` [Bexarotene] + C=CCNC1=C2C[C@@H](C)C[C@H](OC)[C@H](O)[C@@H](C)/C=C(\C)[C@H](OC(N)=O)[C@@H](OC)/C=C\C=C(/C)C(=O)NC(=CC1=O)C2=O [Tanespimycin] (first compound 2 µM, partner dose 0.002 µM): the cell count in the assay with WM115 is 96%; in the assay with WM1716, 98.3%; with WM1745 it was 104%; in the assay on WM3526 it was 80.3%; with WM3619, 118%; with WM451Lu it was 87%.
`NC1(c2ccc(-c3nc4ccn5c(=O)[nH]nc5c4cc3-c3ccccc3)cc2)CCC1` + O=C(CCCCCCC(=O)Nc1ccccc1)NO [vorinostat] (first compound 0.4 µM, partner dose 0.08 µM): the cell count with WM115 amounted to 79%; with WM1716, 109%; in the assay on WM1745 it was 99.7%; in the assay on WM3526, 72.5%; in the assay with WM3619, 69.8%; in the assay with WM451Lu it was 74.7%.
In the case of `CN(c1ncccc1CNc1nc(Nc2ccc3c(c2)CC(=O)N3)ncc1C(F)(F)F)S(C)(=O)=O` + CCCCCCCCCCCC1=C(O)C(=O)C=C(O)C1=O [Embelin] (first compound 0.08 µM, partner dose 1.2 µM), the cell count in the assay with WM115 is 77.5%; in the assay with WM1716, 91.3%; in the assay with WM1745, 75.2%; in the assay with WM3526, 95.6%; in the assay on WM3619 it was 98.8%; with WM451Lu it was 77.8%.
Turning to `CN(c1ncccc1CNc1nc(Nc2ccc3c(c2)CC(=O)N3)ncc1C(F)(F)F)S(C)(=O)=O` + O=C(Nc1ccccc1)c1cc([N+](=O)[O-])ccc1Cl [GW9662] (first compound 0.08 µM, partner dose 2 µM), the cell count worked out at 79.7% in the assay with WM115; 97.9% with WM1716; 92% with WM1745; 119% in the assay on WM3526; 119% with WM3619; 97.7% in the assay with WM451Lu.
Take `CCCS(=O)(=O)Nc1ccc(F)c(C(=O)c2c[nH]c3ncc(Cl)cc23)c1F` + Nc1ncn([C@H]2C[C@H](O)[C@@H](CO)O2)c(=O)n1 [decitabine] (first compound 0.08 µM, partner dose 0.1 µM): the cell count in the assay on WM115 was determined as 98.6%; with WM1716 it was 85%; in the assay with WM1745, 94.4%; in the assay on WM3526 it was 63.4%; in the assay on WM3619 it was 72.6%; with WM451Lu, 89.7%.
Regarding `CS(=O)(=O)c1ccc(C(=O)Nc2ccc(Cl)c(-c3ccccn3)c2)c(Cl)c1` [vismodegib] + CO[C@@H]1[C@H](N(C)C(=O)c2ccccc2)C[C@H]2O[C@]1(C)n1c3ccccc3c3c4c(c5c6ccccc6n2c5c31)C(=O)NC4 [Midostaurin] (first compound 1 µM, partner dose 0.08 µM), the cell count in the assay with WM115 came out at 86.5%; with WM1716, 114%; in the assay with WM1745, 87.4%; in the assay on WM3526, 109%; in the assay with WM3619, 107%; with WM451Lu, 83.3%.
`CCCS(=O)(=O)Nc1ccc(F)c(C(=O)c2c[nH]c3ncc(Cl)cc23)c1F` + CCCCCCCCCCCC1=C(O)C(=O)C=C(O)C1=O [Embelin] (first compound 0.08 µM, partner dose 1.2 µM): the cell count with WM115 worked out at 101%; with WM1716 it was 108%; in the assay with WM1745, 96%; with WM3526, 78.8%; with WM3619 it was 101%; in the assay on WM451Lu it was 132%.
As to `CN(c1ncccc1CNc1nc(Nc2ccc3c(c2)CC(=O)N3)ncc1C(F)(F)F)S(C)(=O)=O` + CC(C)C[C@H](NC(=O)[C@H](Cc1ccccc1)NC(=O)c1cnccn1)B(O)O [Bortezomib] (first compound 0.08 µM, partner dose 0.001 µM), the cell count in the assay on WM115 is 82%; in the assay with WM1716 it was 42.9%; with WM1745, 66.2%; in the assay on WM3526, 83.8%; with WM3619 it was 21.1%; in the assay with WM451Lu it was 79.9%.
Turning to `CN(c1ncccc1CNc1nc(Nc2ccc3c(c2)CC(=O)N3)ncc1C(F)(F)F)S(C)(=O)=O` + O=S(=O)(c1ccccc1)N(CC(F)(F)F)c1ccc(C(O)(C(F)(F)F)C(F)(F)F)cc1 [T0901317] (first compound 0.08 µM, partner dose 1.4 µM), the cell count in the assay on WM115 was found to be 71.1%; in the assay with WM1716, 83.5%; in the assay on WM1745, 60.7%; in the assay with WM3526 it was 67.9%; in the assay with WM3619, 98.6%; in the assay on WM451Lu it was 60.9%.
As to `CN(c1ncccc1CNc1nc(Nc2ccc3c(c2)CC(=O)N3)ncc1C(F)(F)F)S(C)(=O)=O` + Cc1ccc(NC(=O)c2cccc(N(C)C)c2)cc1NC(=O)c1ccc(O)cc1 [ZM336372] (first compound 0.08 µM, partner dose 2 µM), the cell count was 77.9% in the assay on WM115; 93.9% with WM1716; 99.8% in the assay with WM1745; 97.3% with WM3526; 89.9% in the assay on WM3619; 57.8% with WM451Lu.
In the case of `CN(c1ncccc1CNc1nc(Nc2ccc3c(c2)CC(=O)N3)ncc1C(F)(F)F)S(C)(=O)=O` + COc1ccc(-c2ccc3c(N4CCOCC4)nc(N4C[C@@H](C)O[C@@H](C)C4)nc3n2)cc1CO [KU0063794] (first compound 0.08 µM, partner dose 0.02 µM), the cell count with WM115 amounted to 85.9%; in the assay on WM1716, 81.1%; in the assay on WM1745, 86.7%; in the assay with WM3526, 84.8%; with WM3619 it was 112%; in the assay with WM451Lu it was 84.2%.
Turning to `CN(c1ncccc1CNc1nc(Nc2ccc3c(c2)CC(=O)N3)ncc1C(F)(F)F)S(C)(=O)=O` + C[C@@H](Oc1cc(-c2cnn(C3CCNCC3)c2)cnc1N)c1c(Cl)ccc(F)c1Cl [Crizotinib] (first compound 0.08 µM, partner dose 0.2 µM), the cell count turned out to be 85.7% in the assay with WM115; 91.8% with WM1716; 82.3% in the assay on WM1745; 98.4% with WM3526; 111% in the assay with WM3619; 84.2% in the assay with WM451Lu.
On to `NC1(c2ccc(-c3nc4ccn5c(=O)[nH]nc5c4cc3-c3ccccc3)cc2)CCC1` + c1cc(-c2cnn3cc(-c4ccc(OCCN5CCCCC5)cc4)cnc23)ccn1 [Dorsomorphin] (first compound 0.4 µM, partner dose 0.4 µM), for which the cell count amounted to 79.1% with WM115; 98.1% in the assay with WM1716; 89.4% in the assay with WM1745; 64.3% with WM3526; 69% in the assay with WM3619; 87.3% in the assay on WM451Lu.
Consider `CN(c1ncccc1CNc1nc(Nc2ccc3c(c2)CC(=O)N3)ncc1C(F)(F)F)S(C)(=O)=O` + CN(NC(=O)CC(=O)NN(C)C(=S)c1ccccc1)C(=S)c1ccccc1 [STA4783] (first compound 0.08 µM, partner dose 0.006 µM), for which the cell count in the assay on WM115 was determined as 79.9%; in the assay with WM1716, 67.8%; in the assay on WM1745, 55.3%; in the assay on WM3526, 102%; in the assay with WM3619, 90.9%; in the assay on WM451Lu it was 62.5%.
With `NC1(c2ccc(-c3nc4ccn5c(=O)[nH]nc5c4cc3-c3ccccc3)cc2)CCC1` + CN(C)S(=O)(=O)c1ccc2c(c1)/C(=C/c1cc3c([nH]1)CCCC3)C(=O)N2 [SU6656] (first compound 0.4 µM, partner dose 0.4 µM), the cell count in the assay with WM115 came out at 63.9%; in the assay on WM1716, 85.1%; in the assay on WM1745, 81.4%; with WM3526, 74.8%; in the assay with WM3619, 96.1%; in the assay with WM451Lu, 97.9%.
